# Experimental data published in article PMC10668032.
# The other results are listed elsewhere or left out. At the low end of the ranking, values are background and their order means little.
# Molecular target: SIX1-Q177R homeodomain (UniProt Q15475)
# Assay: universal protein binding microarray
# Conditions: Universal all-10-mer PBM (8x60K, AMADID 030236), 300 nM GST-tagged protein, Alexa Fluor 488 anti-GST; buffer, salt, pH and temperature not stated; high values mean tight binding; most listed sequences are background and not binding sites; double strand, one strand shown
row,Sequence,binding signal [E-score]
1,AGCCGGTC,-0.173
2,AGTTAATG,-0.14
3,AGAAGGTC,-0.0424
4,CGATATAG,0.0475
5,AGTGGACC,-0.138
6,AGGTGCCG,0.0502
7,CATAGTAA,0.0931
8,CTCTCAAA,-0.112
9,GATCCCCA,0.267
10,ACTCGTGG,-0.0125
11,ATGGTGCA,0.117
12,ATATGCAA,-0.166
13,AATCTCGT,-0.211
14,ACTCGGGG,0.21
15,CGCTTCCG,-0.215
16,AGCCGTCG,-0.161
17,GTGCCGAA,0.0484
18,AAGAGAGG,-0.211
19,CTGACTAC,-0.0271
20,AGGCGGAG,-0.000365
21,CTTTGCCA,-0.328
22,GAAGGAGC,-0.174

row,Sequence,binding signal [E-score]
1,CCTCTCAC,0.0492
2,CATTTCCA,-0.00441
3,AGGAACGG,-0.201
4,TAGGACTA,-0.173
5,TGATGTAA,0.0254
6,CCGCGGTA,-0.00756
7,AGCATCAT,-0.134
8,AACGGGGC,-0.248
9,ACTTCTCC,-0.14
10,CGGCTGCC,-0.0105
11,GACGATAA,-0.0592
12,AAATCAGG,-0.102
13,CGACCAGA,-0.0704
14,AGTCCGGA,-0.113
15,CGTGCTCC,0.0379
16,ATGTCTCA,-0.0415
17,CCCACCAG,0.108
18,AGCGCGCT,0.00085
19,GGATTTGA,-0.0786
20,CGCACCAA,0.131
21,AACAGCAT,-0.239
22,CCCATGTA,-0.0943

row,Sequence,binding signal [E-score]
1,GTATACAA,0.155
2,ACCCTAAG,0.185
3,GCTGCGCA,-0.233
4,ACAGGACG,-0.0137
5,GCTACGCA,-0.171
6,GAGTTCTA,-0.00646
7,CCATGTTA,-0.0742
8,GCTCCTCA,-0.194
9,GATGAACC,0.0658
10,CACCTGTC,0.224
11,GCCAGTCA,-0.122
12,CGCTATGC,0.0293
13,GAGGGCCC,-0.166
14,AGTCTGTA,-0.283
15,ATGCTAAT,-0.233
16,CTGAGAAC,0.0938
17,ACGATACA,0.187
18,CCATTACA,0.162
19,ACATCCCA,-0.173
20,CGCCGTAA,-0.0507
21,AGGCTCTG,-0.3
22,ATGTGTTG,0.0518

row,Sequence,binding signal [E-score]
1,CATCGTTA,-0.104
2,CGCTAACG,-0.14
3,ATCCAACG,-0.14
4,CGTTTGCA,-0.159
5,CGATAACC,0.0101
6,ATGTGGCG,-0.115
7,GTACTGCA,0.00894
8,CAAGAGGC,-0.316
9,TCACAAGA,-0.0879
10,AAGATCGA,-0.131
11,TACATCCA,-0.0249
12,ACTGTACT,-0.143
13,ACTCACAC,0.3
14,CGAATGAG,-0.028
15,AGGGTGGA,0.0968
16,GAACGAAA,-0.241
17,ATAGACAT,-0.0459
18,ATCGTGCA,0.0543
19,AGCATGAG,0.0403
20,GGTTTTAA,0.0294
